Measurements reported in PubChem BioAssay AID463173 (ICCB-Longwood Screening Facility, Harvard Medical School, 2010).
The campaign covered roughly 52,000 compounds. About 1,700 (3.3%) were called active. Rule as the data show it: active = survival mostly below about 52% (no sharp cut-off); inactive = mostly above about 56%. The list shows a part of the results.

Each compound was assayed on Wild type (assay: S. aureus survival, RN4220 and DeltatarO strains – OD600, teichoic acid synthesis inhibitors, primary screen (AID 463173)). Conditions: S. aureus RN4220 wild type/DeltatarO growth, OD600, 18 h, active compounds read low, screened at 18.75 µg/mL (by protocol).

SMILES | survival
Cc1ccc(NC(=O)CSc2nc(-c3cccs3)nc3cc(=O)[nH]n23)cc1C | inactive: 93%
CCOc1ccccc1CN1CCc2nc(N3CCN(C)CC3)ncc2C1 | active: -4%
CCOc1ccc(-c2cc(C(=O)NC(C)c3ccccc3)c3ccccc3n2)cc1 (stereo unspecified) | inactive: 73%
COc1ccc(COC(=O)C2=C(C)NC(=O)CC2c2cccc(Cl)c2Cl)cc1 (stereo unspecified) | inactive: 100%
CN1C(C(=O)c2ccccc2)=C(NC(=O)c2ccc(F)cc2)c2ccccc2S1(=O)=O | inactive: 102%
O=C(Nc1ccc(C(=O)N2CCN(c3ccccc3F)CC2)cc1)c1nsc2ccccc12 | inactive: 55%
CCOC(=O)N1CCc2c(sc3c2c(=O)n(-c2ccc(F)cc2)c(=O)n3CC(=O)c2ccc(Cl)cc2)C1 | inactive: 85%
CN(C)CCN(Cc1ccco1)C(=O)c1cc2c(s1)-c1ccccc1OC2 | inactive: 70%
COc1ccc(-c2onc(C)c2C)cc1S(=O)(=O)Nc1cccc(C#N)c1 | inactive: 131%
O=C(NCCc1ccc(Cl)cc1)c1ccc2c(c1)nc1n2CCOC1 | inactive: 64%
CCNC(=S)N1CCN(C(=O)C(Cc2ccccc2)NC(C)=O)CC1 (stereo unspecified) | inactive: 110%
CCc1ccc(NS(=O)(=O)c2ccc(-c3cc(C)no3)cc2)cc1 | inactive: 99%
Cc1cccc(NC(=O)C2CC(=O)NC(Nc3nc4ccccc4s3)=N2)c1 (stereo unspecified) | inactive: 104%
Cc1cccc(C(=O)NC2(C(F)(F)F)N=C(c3ccccc3)N(C3CCCCC3)C2=O)c1 (stereo unspecified) | inactive: 67%
CC(=O)C1=C(c2ccc(F)cc2)N(C(C)=O)n2c(nnc2C2CCCCC2)S1 | inactive: 78%
Cc1cccc(OCc2nnc(SCC(N)=O)o2)c1 | inactive: 109%
CCOc1ccc(C(=O)NCC(c2ccc(Cl)cc2)N2CCCCC2)cc1 (stereo unspecified) | inactive: 87%
CCCCNc1ccc(-c2nc(-c3ccccn3)no2)cc1[N+](=O)[O-] | inactive: 82%
COc1ccc(-c2nnn3c2nc(NCc2ccc(C)cc2)c2ccccc23)cc1 | inactive: 85%

SMILES | survival
O=C1C2C3c4ccccc4C(c4ccccc43)C2C(=O)N1CCN1CCNCC1 (stereo unspecified) | inactive: 113%
Cc1cc(C)c(NC(=O)C(C)n2c(=O)cc(-c3ccccc3)c3c(C)nn(C)c32)c(C)c1 (stereo unspecified) | inactive: 89%
CCCNC(=O)CSc1c(CCC)cnc2c1c(=O)n(C)c(=O)n2C | inactive: 98%
O=C(NCCc1csc(-c2cccnc2)n1)c1ccccc1 | inactive: 98%
CCOC(=O)c1cnc(N2CCN(c3cccc(C)c3C)CC2)c2ccccc12 | inactive: 85%
CC(=O)Nc1ccc(NC(=O)Cc2ccccc2)cc1 | inactive: 100%
O=C(CN1C(=O)C2(SCC(=O)N2c2cccc(F)c2)c2ccccc21)NCCc1ccccc1 (stereo unspecified) | inactive: 86%
CCN(CC)C(=O)c1cc2c(n(-c3ccc(OC)cc3)c1=O)CC(C)(C)CC2=O | inactive: 110%
Cc1nnc2c(N3CCN(c4ccc(F)cc4)CC3)nc3ccc(C(=O)c4ccccc4)cc3n12 | inactive: 148%
Cc1ccccc1C(=O)OCc1cc(=O)n2nc(C3CCCCC3)sc2n1 | inactive: 51%
CC1CCCCN1CCCNC(=O)CN1C(=O)CSc2ccc(S(=O)(=O)N3CCOCC3)cc21 (stereo unspecified) | inactive: 73%
CCOC(=O)c1cc(-c2ccc(OC)c(S(=O)(=O)NCc3ccccc3Cl)c2)on1 | inactive: 79%
COc1ccc(OC)c(NC(=O)Cn2ccn(-c3ccc(OC)c(OC)c3)c(=O)c2=O)c1 | inactive: 84%
CCc1ccc(NC(=O)Nc2ccccc2OCc2cc(=O)n3ccccc3n2)cc1 | inactive: 65%
O=C(N1CCOCC1)N1CCC(c2ccc(F)cc2)CC1 | inactive: 110%
COc1ccc(-c2oc3ncn4nc(COc5ccc(C)cc5)nc4c3c2-c2ccc(OC)cc2)cc1 | inactive: 97%
COc1ccc(CNC(=O)c2ccc(NC(=O)N3CCSc4ncccc43)cc2)cc1OC | inactive: 60%
CCOC(=O)c1c(NC(=O)CCCOc2ccc(Cl)cc2)sc2c1CCC2 | inactive: 20%
COc1ccc(OC)c(-c2noc(N3CCN(c4ccc(C(C)=O)cc4)CC3)n2)c1 | inactive: 159%

SMILES | survival
O=C(CN1C(=O)c2cccc3cccc1c23)Nc1ccccc1 | inactive: 115%
CCOC(=O)Cn1c(=O)oc2cc(S(=O)(=O)N3CCN(c4ccccc4OC)CC3)ccc21 | inactive: 81%
O=C(CN1CCC(N2CCCCC2)CC1)Nc1ccc2c(c1)OCCO2 | inactive: 88%
O=C(NCCc1csc2nc(-c3ccccc3F)nn12)c1ccccc1C(F)(F)F | inactive: 99%
COc1cccc(CN(C(=O)c2ccc(C(C)(C)C)cc2)C2CCS(=O)(=O)C2)c1 (stereo unspecified) | inactive: 83%
OC1(c2ccccc2)CCN(Cc2ccccc2)CC1 | inactive: 113%
Cc1cc(=O)[nH]c(SCc2nnc(-c3ccccc3)o2)n1 | inactive: 108%
CCOc1ccc(-c2nnc(SCC(=O)Nc3cc(F)ccc3F)o2)cc1 | inactive: 65%
COCCCNC(=O)c1ccc(Cn2c(=O)c3ccccc3n(Cc3ccccc3C)c2=O)cc1 | inactive: 130%
COc1cccc2c1Oc1nc(-c3ccccc3)nc(SCC(=O)Nc3ccccc3)c1C2 | inactive: 90%
Cc1ccccc1NC(=O)c1c(C)oc2ccc(O)c(CN3CCC(C)CC3)c12 | inactive: 88%
CCCOc1ccc(C(=O)Nc2ccc3nn(-c4ccc(OC)c(Cl)c4)nc3c2)cc1 | inactive: 145%
COc1ccc(NC(=O)c2cnn(-c3ccc(F)cc3F)c2C2CCN(C(=O)OC(C)(C)C)CC2)cc1Cl | inactive: 71%
COc1ccc(CCNC(=O)c2ccc3nc(Cc4ccccc4)oc3c2)cc1OC | inactive: 124%
Nc1nonc1-c1nc2ccccc2n1Cc1c(Cl)cccc1Cl | inactive: 80%
COc1ccc(N(CC(=O)NCCc2ccccc2)S(=O)(=O)c2ccc(OC)c(OC)c2)cc1 | inactive: 83%
O=C(C1CCCN(S(=O)(=O)c2cccc3nonc23)C1)N1CCN(c2ccccc2Cl)CC1 (stereo unspecified) | inactive: 82%
COc1ccc(CCn2c(=O)[nH]c3cc(C(=O)N4CCN(c5ccccc5)CC4)ccc3c2=O)cc1OC | inactive: 102%
